# Experimental data reported in PubChem BioAssay AID887 (National Center for Advancing Translational Sciences (NCATS), 2007).
# Out of some 74,000 compounds screened, about 1,100 (1.5%) were called active. The inconclusive results got no clear call from the source; some entries with a clear call stand among them for comparison. The call rests on the fitted dose curve; in most records, active means well fitted inhibition curve with a large enough effect; inconclusive means small, poorly fitted or top-dose-only effect; inactive means no such curve, though single readings can be large or run the other way. No potency is given beside an inconclusive call; the fits are too rough.
# Molecular target: Polyunsaturated fatty acid lipoxygenase ALOX15 (Homo sapiens) (UniProt P16050)
# Sequence of UniProt P16050 (P16050 whole entry, looked up): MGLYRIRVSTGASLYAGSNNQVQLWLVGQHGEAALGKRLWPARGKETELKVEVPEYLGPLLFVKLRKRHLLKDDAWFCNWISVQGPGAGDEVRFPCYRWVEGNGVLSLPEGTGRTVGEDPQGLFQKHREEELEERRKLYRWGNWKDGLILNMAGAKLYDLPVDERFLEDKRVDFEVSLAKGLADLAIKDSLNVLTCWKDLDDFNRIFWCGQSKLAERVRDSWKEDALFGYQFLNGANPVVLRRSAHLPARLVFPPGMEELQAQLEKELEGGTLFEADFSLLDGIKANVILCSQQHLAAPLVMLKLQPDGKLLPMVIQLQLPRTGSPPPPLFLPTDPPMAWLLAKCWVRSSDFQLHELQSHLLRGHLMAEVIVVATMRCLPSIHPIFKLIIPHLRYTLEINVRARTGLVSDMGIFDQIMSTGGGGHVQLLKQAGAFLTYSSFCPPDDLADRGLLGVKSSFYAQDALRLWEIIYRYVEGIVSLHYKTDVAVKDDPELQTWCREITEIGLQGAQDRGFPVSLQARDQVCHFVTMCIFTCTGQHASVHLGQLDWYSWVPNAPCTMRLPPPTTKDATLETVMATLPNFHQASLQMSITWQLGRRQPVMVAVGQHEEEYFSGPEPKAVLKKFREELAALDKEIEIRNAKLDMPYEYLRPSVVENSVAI
# Assay: qHTS Assay for Inhibitors of 15-hLO (15-human lipoxygenase); further: nearly all actives have a fitted effect of over 55% in size
# Settings: purified 15hLO-1, xylenol orange hydroperoxide absorbance; activity change, negative = inhibition: at 57.1 µM (top of the series) unless noted
# Procedure, shortened: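 Inhibition is scored from a chromogenic endpoint. After 15 min enzyme-compound contact, arachidonic acid (50 uM final) reacts 6 min with 40 nM 15hLO-1 at room temperature, then Fe-XO reagent is added for 30 min and absorbance ratio recorded.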
# On the % scale 0 is the no-effect control and ±100 the full control effect; potency means the concentration at half of the fitted maximal effect; tags describe the fitted curve by direction and shape.
SMILES,Potency,"activity change, negative = inhibition"
CCOCC(=O)Nc1nc2ccc(S(C)(=O)=O)cc2s1,inactive,–
CN(C)S(=O)(=O)c1cccc(-c2nnc(SCc3cc(Cl)cc4c3OCOC4)n2N)c1,active: 12.6 µM,–
COc1ccc(NC(=O)Cc2nc3ccccc3[nH]2)cc1,inactive,–
N#CCSc1nnc(Cc2cccs2)n1C1CCCCC1,"inconclusive [inhibitor, single point]",–
Cc1sc2nc(SCC(=O)c3cc(C)n(CC4CCCO4)c3C)n(C(C)C)c(=O)c2c1C (centres undefined),"inconclusive [inhibitor, partial curve, poor fit]",–
CCOc1ccc(Nc2ncnc3c2cnn3-c2ccccc2)cc1,inactive,–
CCn1c(Cn2nnc(-c3ccccc3)n2)nnc1SCc1ccc(Cl)c(Cl)c1,"inconclusive [inhibitor, partial curve]",–
CCCN1CCN(C(=O)c2cccc3c2C(=O)N(CCOC)C3)CC1,"inconclusive [inhibitor, partial curve]",–
Nc1ccccc1O,"inconclusive [inhibitor, single point]",–
CCCOC(=O)c1ccc(NC(=O)c2cnccn2)cc1,inactive,–
CC(C)C(=O)N1CCN(CCN=CC2=C(O)CC(c3ccco3)CC2=O)CC1 (centres undefined),"inconclusive [inhibitor, single point]",–
CN1CSC2=C(C#N)C(c3cccc(OCc4ccccc4)c3)CC(=O)N2C1 (centres undefined),active: 5.01 µM,–
COc1cc(C/C=C/c2ccccc2)c(OC)cc1O,"inconclusive [inhibitor, single point]",–
O=C(c1oc2ccccc2c1CSCc1ccccc1)N1CCN(c2ncccn2)CC1,"inconclusive [inhibitor, partial curve]",–
N#CC1=C2SCN(c3ccc(F)cc3)CN2C(=O)CC1c1cccc(F)c1 (centres undefined),"inconclusive [inhibitor, partial curve]",–
COc1ccc(C(=O)Nc2cc(OC)cc(OC)c2)cc1,inactive,–
Cc1cc(N2CCN(C)CC2)nc2ccc(NC(=O)c3ccc4c(c3)OCO4)cc12,inactive,–
COc1ccc(CCn2c(N)c(C#N)c3nc4ccccc4nc32)cc1OC,"inconclusive [inhibitor, single point]",–
CSc1ccc(C(=O)c2[nH]c(=O)[nH]c2C)cc1,"inconclusive [inhibitor, partial curve]",–
CC1CCCCN1c1nc(-c2ccncc2)nc2ccccc12 (centres undefined),"inconclusive [inhibitor, full curve, poor fit]",–
COc1ccc(C2c3sc(=O)[nH]c3SC3C4CCC(C4)C23)cc1 (centres undefined),"inconclusive [inhibitor, single point]",–
O=C(COC(=O)COc1ccc(Nc2ccccc2)cc1)NCc1ccco1,"inconclusive [inhibitor, partial curve]",–
COc1ccc(-c2ccc(=N)n(CCCC(=O)O)n2)cc1,"inconclusive [inhibitor, single point]",–
CCn1nc(NC(=O)c2ccccn2)c2cc3cccc(C)c3nc21,inactive,–
COc1ccc(OC(C)C(=O)N2CCN(c3ccccn3)CC2)cc1 (centres undefined),"inconclusive [inhibitor, partial curve]",–

SMILES,Potency,"activity change, negative = inhibition"
Cc1ccc2c(CC(=O)O)coc2c1,"inconclusive [inhibitor, single point]",–
O=c1ccc2ccc(O)c(O)c2o1,active: 25.1 µM,–
C/C(=N\O)c1ccc2c3c([nH]c2c1)CCCC3,inactive,–
O=C(O)COc1ccc2c(c1)CCCC2,"inconclusive [inhibitor, single point]",–
COC(=O)C1=C(C)NC(=O)CC1c1ccccc1F (centres undefined),inactive,–
O=C(Nc1ccccc1N1CCCC1)c1ccco1,"inconclusive [inhibitor, single point]",–
c1ccc(CNc2ncncc2-c2ccc3c(c2)OCO3)cc1,"inconclusive [inhibitor, single point]",–
Cc1ccc(C=Nc2ccc(N(C)C)cc2)o1,"inconclusive [inhibitor, partial curve]",–
O=C(NCC1COc2ccccc2O1)C1CCC(CNc2c(N3CCCCC3)c(=O)c2=O)CC1 (centres undefined),inactive,–
CCOC(=O)C(C(C)=O)c1nc(C)nc2c1nnn2Cc1ccccc1Cl (centres undefined),"inconclusive [inhibitor, single point]",–
CCCn1c(CNc2ccccc2O)nc2ccccc21,"inconclusive [inhibitor, single point]",–
CC(C)CCC[C@@H](C)[C@@H]1CC[C@@H]2[C@H]3CC[C@H]4C[C@@H](N)CC[C@@]4(C)[C@@H]3CC[C@]21C,–,inactive: 6.59% [at 11.4 µM]
COc1cccc(-c2cncnc2NCCN2CCOCC2)c1,"inconclusive [inhibitor, single point]",–
Cc1noc(C)c1-c1nc(Nc2ccc(F)cc2)c2ccccc2n1,active: 15.8 µM,–
CCCN(CCC)C[C@@H]1CCCCN1CCNC(=O)N1c2ccccc2C(=O)Nc2cccnc21,"inconclusive [inhibitor, partial curve, poor fit]",–
Cc1c(C(=O)NCC2CCCO2)sc2nc(-c3ccc(F)cc3)cn12 (centres undefined),inactive,–
O=C(c1ccc(Cl)c(Cl)c1)N(Cc1ccco1)c1ccc(O)cc1,"inconclusive [inhibitor, partial curve]",–
Brc1cnc(N2CCCC2)nc1N1CCOCC1,inactive,–
Cc1ccc(NC(=O)CSC(N)=O)cc1Cl,"inconclusive [inhibitor, partial curve]",–
C=CCn1c(CCC(=O)O)ccc1-c1ccc(OC)cc1,active: 12.6 µM,–
O.O.O.O.O.O.O.O=S(=O)([O-])[O-].[Co+2],inactive,–
Clc1ccccc1-c1cc(NCc2ccccc2)ncn1,"inconclusive [inhibitor, single point]",–
C=CCn1c(SCC(=O)Nc2sc(C)c(C)c2C(=O)OCC)nnc1-c1sc(N)nc1C,"inconclusive [inhibitor, single point]",–
CCOC(=O)C1=C(N)Oc2cc(O)ccc2C1c1cccnc1 (centres undefined),"inconclusive [inhibitor, single point]",–
Cc1ccc2[nH]c(=O)c(C(c3nnnn3C3CCCC3)N(Cc3cccnc3)Cc3ccco3)cc2c1 (centres undefined),"inconclusive [inhibitor, single point]",–

SMILES,Potency,"activity change, negative = inhibition"
N#CC1=C(N)N(c2ccccc2)C2=C(C(=O)CCC2)C1c1cccs1 (centres undefined),"inconclusive [inhibitor, single point]",–
CCc1nnc(NC(=O)CSc2nnc(COc3ccc(C#N)cc3)n2-c2ccccc2)s1,"inconclusive [inhibitor, full curve, poor fit]",–
Cc1ccc(C)c(S(=O)(=O)NC(CCC(N)=O)C(=O)O)c1 (centres undefined),inactive,–
CCOc1ccc2nc(-c3ccccc3)[nH]c2c1,inactive,–
CCOc1ccc(C(=O)Nc2ccc(N3CCCC3)cc2)cc1,"inconclusive [inhibitor, single point]",–
Nc1cc([N+](=O)[O-])ccc1C(=O)O,"inconclusive [inhibitor, single point]",–
Cc1c(C)c2cc(Cl)c(O)c(CN(C)C)c2oc1=O,inactive,–
Cc1cc(C(=O)CSc2nc3ccc(Cl)cc3[nH]2)c(C)n1C,active: 25.1 µM,–
C=CCSc1nc(N)c(C#N)c(-c2ccccc2)c1C#N,"inconclusive [inhibitor, single point]",–
COc1ccc(NC(=O)c2ccc3c(=O)n(Cc4ccco4)c(=S)[nH]c3c2)c(OC)c1,"inconclusive [inhibitor, partial curve, poor fit]",–
CN(C)c1ccc(-c2cc(NCc3ccccc3)ncn2)cc1,inactive,–
CCc1ccc2[nH]c(=O)c(CN(CCN3CCCC3)C(=O)NC3CCCCC3)cc2c1,"inconclusive [inhibitor, single point]",–
O=C(CCc1ccccc1)Nc1c(F)c(F)c(F)c(F)c1F,inactive,–
Cc1oc2ccc(O)c(CN3CCOCC3)c2c1C(=O)c1ccc(Cl)cc1,"inconclusive [inhibitor, partial curve]",–
CC(C)c1ccccc1N1CC(C(=O)O)CC1=O (centres undefined),"inconclusive [inhibitor, single point]",–
CC(C)N(CC(=O)O)CC(=O)O,–,inactive: 0.351% [at 11.4 µM]
N#Cc1ccc(OCc2nnc(SCC(=O)N3CCCc4ccccc43)n2-c2ccccc2)cc1,active: 2.51 µM,–
Cc1cc(Cl)cc2c1NC(=O)[C@]21[C@@H]2C(=O)N(Cc3ccccc3)C(=O)[C@@H]2[C@@H]2CCCN21,"inconclusive [inhibitor, partial curve]",–
CCOc1ccccc1OCC(O)CNC (centres undefined),"inconclusive [inhibitor, single point]",–
O=c1c(-c2ccc(Cl)cc2)nc2cnc(Nc3ccccc3)nc2n1C[C@H]1CCCO1,"inconclusive [inhibitor, partial curve]",–
COc1ccc(-c2nnc3ccc(SC(C(C)=O)C(C)=O)nn23)cc1OC,"inconclusive [inhibitor, single point]",–
CCCCC(=O)NCc1ccc2c(c1)cc(C)n2C,"inconclusive [inhibitor, single point]",–
COC(=O)c1sc(=S)n(-c2ccccc2)c1N,"inconclusive [inhibitor, partial curve]",–
S=C1NC=NC2N=CNC12 (centres undefined),"inconclusive [inhibitor, partial curve]",–
